Data published in the supplement of paper PMC10126150.
Values marked as one replicate rest on one cluster of the flow cell; about a third of the high ones do not repeat.

Test system: ATP
Experiment: switch fluorescence ratio, 500 uM ATP over buffer (Cy3 cluster intensity, sum of 5 cycles each) (fold (ratio)); higher = stronger signal-on switching upon ATP binding; sequences stand for … in TCGTCGGCAGCGTCAGATGTGTATAAGAGACAGTTTTTTTTTTTTTTTTTTTTTTTTT…TC
Conditions: aptamer strand: ATP DNA aptamer (quencher-CACCTGGGGGAGTATTGCGGAGGAAGG + anchor), 100 nM annealed; ATP concentration: 500 uM; one replicate
Method in brief: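 Per cluster, summed Cy3 intensity from the target cycles was divided by that from the buffer cycles to give the fluorescence ratio, then averaged per switch-domain sequence. Clusters outside 100-1000 RFU were excluded. The Cy3-labelled switching-strand clusters, on a modified Illumina MiSeq flow-cell, were annealed to 100 nM quencher-labelled ATP aptamer and imaged in selection buffer, then after 15 min with 500 uM ATP at 22 °C, for five cycles with NaOH stripping and re-annealing between them.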
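Also: ATP exposure 15 min at 22 °C before imaging.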

Sequence	switch fluorescence ratio
CCCCAGCGGA	1.33
CCGATAATCC	1.77
TTCTCGTTTT	0.988
GCTTATGTTA	0.979
GTACAAGGAT	1.01
GAGCAAAACG	1.69
CGATTTTACT	1.04
AGACGATGGG	0.963
GGGCCTATC	0.96
CCAGCAGAGC	1.15
ACTATTCGTT	1.03
CGTTGAACTG	1.03
AACCTAGCTT	1.07
CGTACTGGTA	0.994
GCGTGTCTG	1
ATGGTAAGCC	0.994
TTTCGTCTTC	0.984
ATGCATCA	0.982
GGTTACTCTG	1.07
GTTTTAACCC	0.977
GGAGCTAAAG	1.31
TACAGTAATG	0.987
AGATTACGCT	1
GTAGAAATCA	1.04
TCTTCGTTC	1.13
TCATACGTGT	1.04

Sequence	switch fluorescence ratio
GGGACGCCAG	1.03
CGCTTAGTC	1.13
AGACCGCTTT	1
TTTATCCCCG	0.999
TCCTGTCACG	1.06
AACTGGTCTT	0.948
ACGTCCTGGA	0.977
CACCAACGGG	1.15
ACTGAGAGTT	1.03
GTGATGTAGC	1.05
GTCGATACTT	1.05
TGTAGTTCGC	0.967
ATTATTACGC	1.04
CGAGATTGGG	1
TCCAGTAGAC	1.22
GTCGACAGT	1.01
CCGCGTCGCG	1.01
TTGAAAAGGT	0.971
AAATGCACAG	1.07
TATTACAGCG	1.03
GAAGGATGTT	0.971
GCTTAGAACA	0.961
CGGGTATAAT	0.953
CTCAATACGG	2.85
CAAAAATCTA	0.982
GAGATCTATT	0.956

Sequence	switch fluorescence ratio
TCTAGTCACC	1.05
GAGTATCAAT	1.04
CTATTGATTT	0.984
TAGCTTAGGG	0.967
AAGACTTCCT	1.87
GTAGTCGATA	1.02
ACCTAGATGT	1.07
AAAAACACAA	1.13
AACTACTCTT	1.03
GTTGTTTCAA	1
CGGGATCCT	1
AGTTATGGAC	1.01
CTCCGAACAG	2.69
CGACAGAGAC	1.59
GGGAGATCGG	1
ATAAAGCCA	1.01
ACCAGACGGG	1.04
AAATCTGTGC	1.02
TCGTATTGTA	0.988
GCTTCGCTTT	1.16
TCATCGTGCA	1.1
GCCTCACGGG	1.01
TGTATACGG	1
GTCATGGGCC	1.05
TGGACAGAAT	0.949
CGTGTTCGTG	0.97

Sequence	switch fluorescence ratio
CAATATTGGC	1.05
TCCGCTTCGG	1.02
TTGAAAACT	1.07
GCTTTTACGA	1.08
AGTATTCGCA	1.01
TGGGAGCACG	1.01
AACGGGCGCG	0.979
GTTCCGCCCT	1.23
GGGCGCTCT	1
GGCTTTTATA	0.992
GGTAGAGCTC	1.03
TGTAGACAGC	0.973
CCCGGTCGAC	1.03
TATAGACGTG	0.966
GGGTACATTC	1.01
CTTGGCCTTT	0.985
TGTGTAACGA	0.983
CGAATTCAAG	0.962
GACCTTCATT	1.26
ATAGAAAAAC	1.04
ACTACTAT	1.08
AATTCAGGGT	0.999
GTCGTAGGAG	0.989
GAACCCTCAC	1.11
AAATAAGGT	1.01
AAGGATTCAG	0.986

Sequence	switch fluorescence ratio
CTAACTTGTA	1.01
TCGATATGGC	0.931
CGAAACCGCT	1.37
TTGTTGAGT	0.986
GGAACCCAGG	3.04
TTGAGGTTGC	0.965
TACGCGAACT	1.21
ACGTGCGTTA	1.02
ATCCAATTTC	0.997
CAATGGCGC	1.03
ACTCTAGAGA	1.06
AATGTCACTA	1.04
CGCAAAAATT	5.13
TGTTCGTCAG	0.997
AACAAGAGTC	1.07
TTGGTAACGT	1.01
CAATTTTTGA	0.982
AACGTGTTTA	1.05
CTATACCTTT	0.988
GCTGGTTGTA	1.11
CACGTTATCG	1.02
TGATTCAAGA	0.939
TTTTGAATAT	1
GCATCCATTG	1.01
TGTCGGACGA	0.957
TGGCGTGCGA	1.03

Sequence	switch fluorescence ratio
AGCCTCCACT	1.04
TTGAGAGTGC	0.992
ACTGTATGAG	1.13
GGCGGCTAAG	1
TGTCTCAGTT	0.96
ATAATCTCCG	1.15
AAACTCGAGA	0.969
GACTGTTGGA	0.922
TAACATTTCC	1.6
ACGACAGACG	1.14
TGTTTCTGAC	1.02
CGCACATAGG	1.29
AGGGCGTTGA	1.03
TAATTTAA	1.01
CCCCGGGGAC	1.09
GACGGCTCTT	1.08
GCATTAATTG	0.989
AAGTTTCTC	1.01
CTATCGTGTT	0.976
GCTTGGCCAC	1.01
TTTAGGACGG	1.03
TTTTATTAAG	1.01
AAAGCTTGGG	1.01
ATGCTAATCA	1.06
AATCATTTCC	1.18
GGCTAGGGCA	0.979

Sequence	switch fluorescence ratio
CGATGAATGG	1.09
CCCAATCCGG	1.06
CAAAGCTAGG	1.01
GTTTGCGATG	1.02
CTACAGTCTG	0.99
CCAACATGTA	1.03
ACCTGTAGCT	1.05
GCAGAATCTG	0.966
ATGTCAAGGT	0.989
TATTCACCGG	1
TCCAGCTCCC	1.33
CAATTTGCCA	0.932
AAAAACCCAT	1.1
AAGTATAGAG	1.01
GTCCATAGTG	0.997
ACTATTTAAA	0.985
ATTGTTTATG	1.01
TCTGTCGTCT	1.06
GTCCAGGGTA	1.1
CAAACTTCT	1.01
GTCCGGAGTC	1.3
AAATTTACCC	1.05
TATAAGCGAA	0.989
TTGCTACCCA	1.06
CACATTGTGT	1.06
TTGCCTCTGG	0.978

Sequence	switch fluorescence ratio
TTGAATGGG	0.998
AGGATTGAAA	1.03
CGATCTCCTA	0.985
GTAGTGCTGT	0.997
TGACTGATG	1
CTGCGTAGAA	1.02
GTGGGGGGG	0.963
CTCAGTGGAC	1.54
ATACACTAGT	1.06
GCTTCCAATA	2.42
GCCTTTGAGA	0.99
AACGGTGTCA	0.979
TTATCGCTAC	2.83
ACAGATACCA	1.04
CGACCGGGTC	0.989
ATGCCTGACT	0.99
TGCCGATTAT	0.993
CGGCTGGGAG	1.02
TGGAAATATG	1.06
